The BET-seq Pho4 binding data (Le et al. 2018)
This is one part of the list. These are noisy estimates, calculated here from bound and input reads.

The sequences below were run against T1, Pho4 (S. cerevisiae) (UniProt P07270) (assay: relative binding free energy (BET-seq); higher = weaker binding). Settings: reference: library average.
T1 sequence: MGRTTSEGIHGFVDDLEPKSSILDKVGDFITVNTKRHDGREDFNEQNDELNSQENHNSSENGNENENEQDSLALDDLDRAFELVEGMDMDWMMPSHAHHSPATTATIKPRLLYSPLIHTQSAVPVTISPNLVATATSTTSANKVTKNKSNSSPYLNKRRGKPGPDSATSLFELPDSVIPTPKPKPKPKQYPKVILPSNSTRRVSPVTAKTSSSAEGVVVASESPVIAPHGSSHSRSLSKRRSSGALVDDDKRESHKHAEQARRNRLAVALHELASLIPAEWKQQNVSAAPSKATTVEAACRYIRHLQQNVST

Sequence | relative binding free energy [kcal/mol]
TGATACACGTGTTCTG | -0.08
GCAGGCACGTGGGATT | -0.15
TTTATCACGTGTACTA | 0.18
TATATCACGTGGGATT | 0.01
GGAGCCACGTGCGGTT | 0.01
TTTCTCACGTGGGTAT | -0.05
CTATTCACGTGGGATT | 0.1
TAAAGCACGTGTATGT | -0.15
AGGTGCACGTGTTGAG | 0.02
GAGATCACGTGAGGAT | 0.4
CTGGGCACGTGGGCCT | -0.17
CGGTTCACGTGAGGGA | 0.3
AAAAGCACGTGGGGGT | -0.23
GCTGGCACGTGGTGAG | -0.05
TTGGCCACGTGCTTGG | -0.12
TTTGGCACGTGTAGTA | -0.11
TCTGGCACGTGGGGGG | -0.16
GATAGCACGTGCAAGG | 0.08
GGAGGCACGTGCTTTG | -0.03
TCGCTCACGTGGGGTA | 0.12
TGAAGCACGTGTATTT | 0.09
TGAGTCACGTGGCGTC | -0.03
TGTGTCACGTGTCGTA | 0.03
TGCCTCACGTGAGTTT | 0.44
TTTACCACGTGGGAGT | -0.13

Sequence | relative binding free energy [kcal/mol]
TGATTCACGTGGTTAC | 0.07
TTGCACACGTGTTATT | 0.09
TTTGTCACGTGATGGA | 0.25
TCGTGCACGTGGAGAG | 0.04
TTGGTCACGTGAATCA | 0.26
GTTAGCACGTGTGCAG | 0.04
TCTCACACGTGTGGGT | 0.1
GGTTTCACGTGCTTGA | 0.25
AAGGGCACGTGCTGGT | -0.33
TAAGGCACGTGATCTT | -0.04
ATTTCCACGTGAGGGG | 0.23
AAAATCACGTGTCTGG | 0.45
TGAGGCACGTGATTAG | -0.07
GTTTTCACGTGGCAGA | 0.36
GGAATCACGTGAGGCG | 0.27
TCAGGCACGTGCATTG | 0
ACGTTCACGTGGGGTT | 0.1
GGGGGCACGTGGGCAA | -0.22
TATCGCACGTGAGGAT | 0.29
CAGTTCACGTGTGTAG | 0.23
AGGTGCACGTGTTTCT | -0.09
TTGTACACGTGGAGGG | -0.05
CGGGGCACGTGCGCGT | -0.31
CTGATCACGTGGGGTG | -0.13
GGTTCCACGTGTTCGG | 0.12

Sequence | relative binding free energy [kcal/mol]
TATTACACGTGGGGTG | -0.07
TCGGGCACGTGCGTTA | -0.02
ATTTCCACGTGTTTTG | 0.02
GTGGTCACGTGATTAT | 0.33
TTGTACACGTGTCGCG | 0.12
AGGTTCACGTGTAAGA | 0.24
ATGGTCACGTGGGTAG | -0.06
ATAGGCACGTGACAGT | -0.01
AGTAACACGTGCGAGG | -0.01
GTTGCCACGTGGTGAA | 0
AGCGACACGTGGTTAT | 0.11
CGCGTCACGTGGTTTT | 0.19
TCAGGCACGTGCTGTT | -0.22
GTTACCACGTGGGTCG | 0.04
TTAATCACGTGTTAAT | 0.19
TTGGGCACGTGTGGCA | 0
ATGCCCACGTGTGTGG | -0.11
TGTGGCACGTGGTGAA | -0.04
AGGAACACGTGAGTTG | 0.3
GGGTGCACGTGATCTT | 0.11
GTAGACACGTGGTGCT | 0.19
AGTCGCACGTGTAGGG | 0.01
CACGGCACGTGAGGGG | 0.16
ATTCGCACGTGCAGGG | -0.04
TTTCGCACGTGGTGAA | -0.11

Sequence | relative binding free energy [kcal/mol]
GGGGCCACGTGTGCCG | 0.02
AACGTCACGTGTTTGG | 0.02
ACGAGCACGTGGTAGG | -0.28
TTATACACGTGAAAGT | 0.34
TCATGCACGTGATATT | 0.18
GATCTCACGTGTAAGG | 0.33
AGATTCACGTGTTAGG | 0.22
CTTGTCACGTGGGCGG | -0.1
TAATGCACGTGATCGT | 0.05
TTTTGCACGTGTTTTT | 0.04
CTGTTCACGTGTGGTC | 0.3
GTATGCACGTGGGCGC | -0.24
TTTGTCACGTGCGTGT | 0.01
TGAAGCACGTGGAGAG | -0.11
CGCAGCACGTGTTGGA | 0.02
TAATGCACGTGGAATG | 0
GAATGCACGTGTTAGG | 0.07
GTGAGCACGTGTGGTT | -0.02
TTATTCACGTGCTATG | 0.09
TGGAACACGTGAGGAT | 0.25
GGTGGCACGTGGCTAG | -0.14
AGTTACACGTGTGGGA | 0.18
TAATTCACGTGGTAAG | 0.27
TTGTTCACGTGTATAG | 0.28
TCTGACACGTGGGGAA | -0.11

Sequence | relative binding free energy [kcal/mol]
TTGTGCACGTGTGCCG | 0.04
ATTTACACGTGTTTTA | 0.21
TGTTTCACGTGTACTA | 0.35
AGGCTCACGTGTTTTT | 0.28
TTAGACACGTGGGAAG | -0.02
AGATTCACGTGTTAGA | 0.29
TTGTTCACGTGTAAGT | 0.4
AAGTTCACGTGGCGTT | 0.12
AGAAACACGTGTGGGG | 0.05
TTTGACACGTGCAGTG | 0.04
AATATCACGTGTTGTG | 0.09
ATATTCACGTGTTTGG | 0.15
GATTACACGTGGTTTA | 0.03
GGAGGCACGTGACGGT | -0.02
ATCTACACGTGGGGGT | 0.06
CAGGGCACGTGGTATG | -0.33
AGTCGCACGTGGTGCG | -0.16
TATGGCACGTGTAAAA | 0.08
GGTAGCACGTGTTTAA | -0.02
TAGTTCACGTGATCTG | 0.37
TAGGGCACGTGTATTT | 0.06
AGGTGCACGTGAACGG | 0.24
CATTGCACGTGTGTTA | -0.07
GGTTTCACGTGTCGCG | 0.41
ATGAGCACGTGTGTGT | -0.08

Sequence | relative binding free energy [kcal/mol]
TGAGGCACGTGAAGGC | 0.05
TATGTCACGTGCCTGG | -0.01
GGGCGCACGTGGATTT | 0.11
TGTTACACGTGGATTG | 0.06
TATGCCACGTGGTAAT | -0.12
GTGGGCACGTGTGCCT | -0.12
TACTTCACGTGTAGTG | 0
TTTAGCACGTGGTGCG | -0.09
TTTGGCACGTGGGCGG | -0.19
CTGTGCACGTGAGGCG | -0.04
CTGAGCACGTGGAAGG | 0.07
GGGAGCACGTGCATGA | -0.04
CTTTGCACGTGTTATA | -0.03
GTGATCACGTGGATGG | 0.12
AGTTTCACGTGGGCGT | 0.17
AGTGGCACGTGTGGAC | -0.06
AAAGGCACGTGCGGGG | -0.16
AATTGCACGTGACGGG | 0.22
TCGGTCACGTGTTCTT | 0.29
CGGTGCACGTGCCTGG | -0.09
CCTGTCACGTGTGTTG | 0.08
